Data taken from article PMC6919601, “Identification of Plasmodium dipeptidyl aminopeptidase allosteric inhibitors by high throughput screening” (PLoS ONE, 2019).
Among all 110,000 compounds or so, about 230 (0.21%) showed an effect of 50% or more. The list shows a part of the results.

Biological target: DPAP1 (Plasmodium falciparum, UniProt Q8IIJ9)
Assay: primary screen, percent inhibition; read by cleavage of a fluorogenic dipeptide substrate; higher = more effect of the substance
Set-up: species or system P. falciparum D10 trophozoite lysates; single well
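Also: 30 min substrate incubation versus DMSO and 10 µM JCP410 controls.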

Sequence of DPAP1 (Q8IIJ9 whole entry, looked up): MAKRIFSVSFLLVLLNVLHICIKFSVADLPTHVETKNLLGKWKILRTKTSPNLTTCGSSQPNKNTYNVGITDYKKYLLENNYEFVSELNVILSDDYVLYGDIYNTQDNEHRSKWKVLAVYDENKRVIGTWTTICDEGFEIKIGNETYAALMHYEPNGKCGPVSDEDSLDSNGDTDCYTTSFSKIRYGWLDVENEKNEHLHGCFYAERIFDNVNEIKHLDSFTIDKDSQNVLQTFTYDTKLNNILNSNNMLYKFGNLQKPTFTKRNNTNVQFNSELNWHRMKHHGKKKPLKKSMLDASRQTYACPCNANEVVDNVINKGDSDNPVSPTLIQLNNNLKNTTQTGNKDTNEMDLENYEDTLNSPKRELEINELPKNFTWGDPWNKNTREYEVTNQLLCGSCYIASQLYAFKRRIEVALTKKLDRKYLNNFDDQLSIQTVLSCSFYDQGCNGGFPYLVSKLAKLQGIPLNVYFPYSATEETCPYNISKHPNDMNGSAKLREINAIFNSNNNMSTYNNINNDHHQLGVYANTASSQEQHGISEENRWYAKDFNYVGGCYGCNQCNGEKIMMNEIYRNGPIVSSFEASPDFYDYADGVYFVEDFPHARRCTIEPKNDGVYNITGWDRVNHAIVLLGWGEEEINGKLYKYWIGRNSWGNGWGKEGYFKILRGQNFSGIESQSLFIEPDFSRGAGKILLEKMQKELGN

SMILES | % Inhibition @ 10 uM [%]
CC(=O)NS(=O)(=O)c1cccnc1Nc1cccc(Cl)c1C | -0.46
COc1ccc(C(=O)N/C(=C/c2ccc(OC)c(OC)c2)C(=O)N2CCOCC2)cc1 | -2.07
O=C(Cn1cnc(S(=O)(=O)N2CCCC2)c1)NC1CCCc2ccccc21 (centres unmarked) | -4.36
COc1ccccc1OCc1nc(C#N)c(N(C)C)o1 | -0.958
Cc1nc2ncnn2c(O)c1CCC(=O)NCCc1c[nH]c2ccccc12 | 2.12
O=C1NC(=S)S/C1=C\c1c(NCC2CCCO2)nc2ccccn2c1=O (centres unmarked) | -6.95
O=C(N1CCOCC1)N1CCN(Cc2ccccc2)CC1 | 1.54
O=C(c1ccc(CS(=O)c2ccccc2Cl)o1)N1CCOCC1 (centres unmarked) | 1.77
CC(C)c1ccc([C@H]2[C@@H]3CCCC=C3C(C#N)=C(N)C2(C#N)C#N)cc1 | 0.0719
CC(C)(C)c1ccc(OCCCCCN2CCOCC2)cc1 | 5.35
CSc1nc(N2CCOCC2)c2ccccc2n1 | -4.65
CN(C)S(=O)(=O)c1ccc(C(=O)NCCC23CC4CC(CC(C4)C2)C3)cc1 | -5.51
C=CCNC(=S)Nc1sc2c(c1C(=O)OCC)CCCC2 | 7.47
Cn1cc(S(=O)(=O)N2CCCC2)cc1C(=O)N1CCc2ccccc2C1 | 0.813
O=C1c2ccccc2-c2onc3c(Oc4ccc(Cl)cc4)cc(O)c1c23 | -2.19
CCn1c(C)c(C)c2cc(C(=O)NCCN3CCCCC3C)ccc21 (centres unmarked) | 1.26
COc1ccccc1CC(C)Nc1ccc(F)c(Cl)c1 (centres unmarked) | 2.7
CCOC(=O)C1=C(C)N(C)C(=S)NC1c1cc(OC)ccc1OC (centres unmarked) | -3.98
Cc1cccn2c(=O)c(/C=N/Cc3ccccc3)c(NCc3ccco3)nc12 | 12
Cn1c(C(=O)NCC2CCCO2)cc2c(=O)n3ccccc3nc21 (centres unmarked) | -7.09
c1cc2c3c(cccc3c1)C(N1CCOCC1)=N2 | -3.27
CCOc1ccc(C(=O)Nc2sc3c(c2C(N)=O)CCC(C)C3)cc1 (centres unmarked) | -4.15
CCOc1cccc(/C=C2/NC(=O)N(c3cccc(Cl)c3)C2=O)c1O | -3.04
CN(C)c1ccc(C(=O)NC2CC(C)(C)NC(C)(C)C2)cc1 | 0.35
COc1ccc(-c2noc(CN(C(=O)/C=C/c3ccccc3Cl)C(C)C)n2)cc1 | 4.15
COc1cccc2cc(C(=O)N3CCN(C(=O)c4ccccc4)CC3)c(=O)oc12 | 2.17

SMILES | % Inhibition @ 10 uM [%]
N#Cc1c(-c2ccccc2)nc2n(c1=O)CCS2 | -3.96
CCOc1ccc(-c2nonc2NC(=O)CC(C)C)cc1OCC | 0.248
Cc1ccc(CN2CCN(c3ccc([N+](=O)[O-])cc3)CC2)c(C)c1 | 4.81
CSc1nc(O)c2c(-c3ccc(F)cc3)c3c(nc2n1)CC(C)(C)CC3=O | -0.95
CC(CCc1ccccc1)NC(=O)CCCCn1c(=O)[nH]c2ccsc2c1=O (centres unmarked) | -0.228
Cc1ccc(C2=NN(S(C)(=O)=O)C(c3cc4ccccc4nc3Cl)C2)cc1 (centres unmarked) | -2.65
Cn1cccc1Cc1nnc(SCC(=O)N2CCOCC2)n1CCc1ccccc1 | -5.76
COc1ccc(S(=O)(=O)Nc2ccc(S(=O)(=O)Nc3ccc(Cl)cc3)cc2)cc1OC | -6.51
NS(=O)(=O)c1ccc(CCNC(=O)c2nc(-c3ccc(Cl)cc3)n3c2CCCCC3)cc1 | 4.61
Cc1ccc(C(=O)Nc2ccc(-c3nc4ncccc4o3)cc2)c2ccccc12 | -7.44
CCOc1ccccc1N1CCN(C(=O)C23CC4CC(CC(C4)C2)C3)CC1 | -4.52
C=CCC(N)(/C=C/c1ccccc1)CC=C | -4.43
O=C(COc1ccc(Cl)cc1Cl)Nc1ccc(C(=O)O)cc1 | -3.65
COC(=O)c1nnn(-c2ccc(C)cc2C)c1C(=O)OC | -7.46
COc1cc(C=C2C(=O)N(C)C(=O)N(C)C2=O)ccc1OCc1ccc(C)cc1 | 9.09
COc1ccc(/C=C(/NC(=O)c2ccco2)C(=O)NCCc2c[nH]c3ccccc23)cc1OC | -1.26
NC(=O)NC(CC(c1ccccc1)c1ccccc1)c1ccccc1 (centres unmarked) | 4.7
CCN1CCN(CCCNC(=O)C2CCN(S(=O)(=O)N3CCCCC3)CC2)CC1 | 0.387
CCC(C)Oc1ccccc1/C=C1/SC(=O)NC1=O (centres unmarked) | 4.32
CCSc1nnc(-c2ccccc2N)c(O)n1 | -1.56
CN(CC(=O)NC1CCCCC1)S(=O)(=O)c1ccc(F)cc1 | -2.29
NC(=O)c1c(N)sc2c1CCCCC2 | 43.2
Cc1ccc(Cn2cc(C=O)c(-c3ccc(F)cc3)n2)cc1 | 3.3
CCOc1ccccc1NC(=O)c1ccccc1Cl | 0.827
CCOc1ccc(C(=O)C2=C(O)C(=O)N(CCN(C)C)C2c2ccccc2F)c(C)c1 (centres unmarked) | -1.93
Oc1c2nc3ccccc3c-2ncn1Cc1ccccc1Cl | 3.24

SMILES | % Inhibition @ 10 uM [%]
NC(=O)c1cc(S(=O)(=O)NCc2cccs2)cs1 | -1.39
O=C(N/C(=C\c1cccnc1)C(=O)N1CCC(O)CC1)c1ccccc1 | -7.11
CCOC(=O)C1=CN(Cc2ccc(Cl)cc2)C=C(C(=O)OCC)C1c1ccc2c(c1)OCO2 | -3.23
CCO/C(O)=C1/C(C)=Nc2ncnn2C1c1cc(OC)ccc1OC (centres unmarked) | 0.0842
O=S(=O)(c1ccc(F)cc1)N1CCN(C/C=C/c2ccccc2)CC1 | -5.15
CCCCCc1ccc(-c2ccc(-c3noc(-c4ccccc4Cl)n3)cc2)cc1 | 5.29
CCC(NC(=O)C1CCC(C/N=c2/c(N3CCCCC3)c(O)c2=O)CC1)c1cccs1 (centres unmarked) | 1.02
CCOC(=O)Cc1csc(NC(=O)c2cccc(F)c2)n1 | -0.0619
O=C(O)c1c(F)c(F)c(F)c(F)c1Cc1ccccc1 | 0.146
O=C1OC(c2ccc(Cl)cc2)=N/C1=C\C=C\c1ccccc1 | 5.94
c1ccc(-c2cccs2)cc1 | -2.17
O=C(CN1N=C(c2ccccc2)CCC1=O)NCc1cccs1 | 5.35
O=C(/C=C/c1cccc([N+](=O)[O-])c1)NC1CCCCC1 | -2.12
CC1CN(C2CC(=O)N(c3ccc(N4C(=O)CC(N5CC(C)OC(C)C5)C4=O)cc3)C2=O)CC(C)O1 (centres unmarked) | 12.3
O=C(Nc1nnc(CCN2CCCCC2)s1)c1ccco1 | -4.42
COC(=O)c1c2c(c[n+](C)c1C)COC(C)OC2 (centres unmarked) | -1.72
Cc1c(C(=O)N2CCN(C)CC2)oc2ccc3c(c12)C(=O)CC(C)(c1ccc(Cl)cc1)O3 (centres unmarked) | 2.84
Cc1ccccc1NC(=O)CCN1C(=O)CSC1=O | -3.25
O=C(C1CCCN(c2ncnc3c2nc2n3CCCCC2)C1)N1CCC(N2CCCCC2)CC1 (centres unmarked) | -1.21
CCCNC(=O)Cn1c(=O)sc2ccccc21 | 0.526
COc1ccc(CN2CCN(C(=O)c3cccc(F)c3)CC2)cc1Br | -18.8
CC(=O)c1cc(C#N)c(SCC(=O)c2ccc(Cl)cc2)nc1C | 2.7
COc1ccc(CCNC(=O)N2CCOCC2)cc1OC | 3.59
CCSc1nc2c(c(=O)n1C1CCCC1)C1(CCCCC1)Cc1ccccc1-2 | -0.267
CCC(C)NC(=O)CNC(=S)N(Cc1ccccc1F)C1CCCCC1 (centres unmarked) | -2.14
COc1cc(C(=O)Nc2c(C(=O)c3ccc(F)cc3)oc3ccccc23)cc(OC)c1OC | -1.11

SMILES | % Inhibition @ 10 uM [%]
CCCCCCc1cc2c(s1)CCCC/C2=N\O | -6.36
CC1(C)CC1C(=O)NCc1ccccc1 (centres unmarked) | 0.00178
CCN(CC)C(=O)C1CCCN(Cc2c(F)cccc2Cl)C1 (centres unmarked) | -6.82
Cc1ccc2cc3cc(C(=O)N4CCCC4)sc3nc2c1 | 0.947
Cc1c(C)n(C(=O)CSc2nc3ccccc3[nH]2)c2ccccc12 | -0.85
CCC(C)NC(=O)C(CC)n1nc(C)n2c(cc3sccc32)c1=O (centres unmarked) | 3.4
O=C(Nc1ccc(Cl)cc1)Nc1cc(Br)cc2cccnc12 | -3.77
COc1cc(C2SCC(=O)N2c2nnc(C34CC5CC(CC(C5)C3)C4)s2)cc(OC)c1OC (centres unmarked) | 0.884
Cc1ccc(S(=O)(=O)NCCC(=O)NCCc2ccccc2Cl)cc1 | -3.94
Cc1ccccc1OCC(=O)Nc1sc2c(c1C#N)CCC2 | -2.54
COc1cc(NS(=O)(=O)c2ccc(NC(=O)c3ccc(C)cc3)cc2)nc(OC)n1 | 7.36
Cc1nc(SCC(N)=O)c(C#N)c(C)c1C | -0.239
CC1C(O)CC(c2ccccc2)NC1c1ccccc1 (centres unmarked) | -4.03
Cc1ccc(S(=O)(=O)N2CCC(C(=O)NCC3OCCc4ccccc43)CC2)cc1 (centres unmarked) | 15
O=C(c1ccc2c(c1)sc1nc(-c3ccc(F)cc3)cn12)N1CCN(C(=O)c2ccco2)CC1 | 10.9
CCNC(=O)CN(Cc1ccccc1Cl)S(=O)(=O)c1ccc(Br)cc1 | -2.32
COC(=O)c1cnn2c(C(F)(F)F)cc(-c3cccs3)nc12 | -0.406
Cc1nc2c(c(C)nn2C)c(C)c1CCC(=O)NCCC1=CCCCC1 | -6.09
CSc1ncc(C(=O)NCc2ccco2)c(C)n1 | -4.27
CCc1ccccc1-n1nnc(-c2nc(-c3ccc(OC)cc3)no2)c1N | 1.13
CCOc1ccc(Cl)cc1CNCCNC(=O)c1nonc1N | 4.94
CCOC(=O)c1c(NC(=O)COc2ccccc2C)sc2c1CCN(C(C)=O)C2 | 10.1
O=C(Nc1sc2c(c1C(=O)NCC1CCCO1)CCCC2)c1ccccc1Cl (centres unmarked) | -3.34
